Experimental data: CN114395034A

Target: 冠状病毒RaTG13 RBD蛋白 (coronavirus RaTG13)
Conditions: remark: other sources report otherwise

B1: IMCAS-72 (antibody)
chain 1: DQVQLVESGGGLVQPGGSLRLSCAASGFTFSSYGMHWVRQAPGKGLEWVAVISYDGSDKYYADSVKGRFTISRDNSKNTLYLQMNSLRAEDTAVYYCARDRDRFGDQGGWFDPWGQGTLVTVSS[human IgG1 constant region skipped]
chain 2: [about 100 residues skipped][about 100 residues skipped]
Kd: 6.21 nM
